The structures appear in SMILES notation. The campaign covered roughly 310,000 compounds. About 14,000 (4.5%) showed an effect of 50% or more. Effects have a minus sign here. The list shows a part of the results.

Data on 42 molecules can be found in article PMC4336329 (PLoS ONE, 2015).
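Note: peak tail current of the secondary pulse compared with the same well before compound.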

human ether-à-go-go-related gene (hERG) potassium channel, sequence (Q12809 whole entry, looked up): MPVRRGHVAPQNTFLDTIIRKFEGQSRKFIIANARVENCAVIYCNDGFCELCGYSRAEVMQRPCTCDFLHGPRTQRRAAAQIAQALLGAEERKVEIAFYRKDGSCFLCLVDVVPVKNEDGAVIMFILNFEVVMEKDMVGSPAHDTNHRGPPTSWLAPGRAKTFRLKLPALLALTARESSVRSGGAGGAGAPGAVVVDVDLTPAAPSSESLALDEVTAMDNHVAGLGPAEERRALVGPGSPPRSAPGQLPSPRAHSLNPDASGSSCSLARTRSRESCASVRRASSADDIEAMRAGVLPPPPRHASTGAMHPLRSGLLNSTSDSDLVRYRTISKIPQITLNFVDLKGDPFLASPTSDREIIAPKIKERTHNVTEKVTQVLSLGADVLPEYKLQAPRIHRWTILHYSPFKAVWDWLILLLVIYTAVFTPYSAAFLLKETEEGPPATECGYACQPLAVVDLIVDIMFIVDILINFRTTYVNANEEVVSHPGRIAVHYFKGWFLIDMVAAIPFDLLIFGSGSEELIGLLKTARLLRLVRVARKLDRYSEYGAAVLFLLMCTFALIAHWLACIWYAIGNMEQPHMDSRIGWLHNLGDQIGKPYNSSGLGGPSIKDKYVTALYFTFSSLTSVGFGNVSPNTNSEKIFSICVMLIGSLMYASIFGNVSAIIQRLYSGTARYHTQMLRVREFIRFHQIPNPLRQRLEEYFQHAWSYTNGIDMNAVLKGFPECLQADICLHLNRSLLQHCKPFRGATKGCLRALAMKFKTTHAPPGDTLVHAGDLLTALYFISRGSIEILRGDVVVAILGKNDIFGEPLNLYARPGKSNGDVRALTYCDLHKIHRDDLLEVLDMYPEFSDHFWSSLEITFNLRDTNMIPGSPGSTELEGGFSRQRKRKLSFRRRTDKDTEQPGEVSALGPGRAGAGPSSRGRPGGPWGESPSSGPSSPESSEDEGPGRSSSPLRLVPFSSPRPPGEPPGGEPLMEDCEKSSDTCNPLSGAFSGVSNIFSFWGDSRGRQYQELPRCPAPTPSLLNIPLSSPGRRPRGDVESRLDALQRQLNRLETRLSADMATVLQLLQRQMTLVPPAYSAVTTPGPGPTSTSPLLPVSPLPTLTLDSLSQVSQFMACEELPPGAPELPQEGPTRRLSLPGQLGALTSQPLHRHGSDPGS

The assay has as its target human ether-à-go-go-related gene (hERG) potassium channel (human, UniProt Q12809). The experiment in a line: primary screen, population patch clamp on CHO cells stably expressing hERG.
For `CCc1ccccc1NC(=O)c1ccccc1N1C(=O)C2C3C=CC(C3)C2C1=O` (stereo not drawn), the “hERG current change (%, negative = inhibition) at 10uM” value is listed as 18.3%.
In the case of `Cc1cccc(N2C(=O)C3C(c4ccccc4)OC4(C(=O)c5ccccc5C4=O)C3C2=O)c1` (stereo not drawn) it was 14.9%; in that of `COC(=O)C1=C(N)Oc2cc(C)n(Cc3cccnc3)c(=O)c2C1c1ccccc1OC` (stereo not drawn), -7.68%.
Consider `CCC1(C)N=C(c2ccc3c(c2)OCO3)CC(c2ccccc2O)N1` (stereo not drawn), for which the “hERG current change (%, negative = inhibition) at 10uM” value was 2.42%.
In the case of `O=C(NCc1ccc(F)cc1)c1cnc(Cl)c(Cl)c1` it was -6.81%; in that of `COc1ccc(OC)c(C(c2c(C)[nH][nH]c2=O)c2c(C)[nH][nH]c2=O)c1`, 31.1%.
As to `Cc1ccc(NC(=S)NCC2CCN(C(C)c3ccccc3)C2)cc1C` (stereo not drawn), the “hERG current change (%, negative = inhibition) at 10uM” value is reported as -44.6%.
Regarding `COc1ccccc1N1CCN(C(=O)c2ccc(CSc3ccccc3)cc2)CC1`, the “hERG current change (%, negative = inhibition) at 10uM” value is given as 2.7%.
In the case of `O=C(COC(=O)/C=C/c1ccccc1[N+](=O)[O-])NCC1CCCO1` (stereo not drawn) it was 7.22%; in that of `COc1ccc(/C=C2\S/C(=N/S(=O)(=O)c3cccs3)NC2=O)cc1`, 8.45%; in that of `O=C(NCc1ccco1)c1cc([N+](=O)[O-])ccc1N1CCCCC1`, -40.5%.
To `CC(C)Cn1c(-c2ccco2)csc1=Nc1cccnc1` belongs 8.45%; to `CC(C)C(=O)Nc1ccc(C(=O)N/N=C/c2cc(Br)cc(Br)c2O)cc1`, 0.959%.
On to `CCOc1cc(C=C2C(=O)NC(=O)NC2=O)ccc1OCC(=O)N1CCOCC1`, for which the “hERG current change (%, negative = inhibition) at 10uM” value turned out to be 7.28%.
In the case of `Nc1cc(S(=O)(=O)Nc2cc(Cl)ccc2Cl)ccc1N1CCCC1` it was -0.665%.
On to `COC(=O)C1=C(C)NC(=O)C1(NC(=O)c1cccnc1)C(F)(F)F` (stereo not drawn), for which the “hERG current change (%, negative = inhibition) at 10uM” value was -13%.
To `Cc1ccc(NC(=O)N/C=C/c2ccc(Cl)cc2)cc1` belongs 22.7%; to `Cc1ccc(C2C(C(=O)c3sc(C)nc3C)=C(O)C(=O)N2CCN2CCOCC2)o1` (stereo not drawn), 6.3%; to `CC1(C)CC1C(=O)Nc1ccc([N+](=O)[O-])cc1Br` (stereo not drawn), -9.3%.
In the case of `COc1ccc(NC2=C(NC(C)=O)C(=O)c3ccccc3C2=O)cc1` it was 13.5%; in that of `COc1cc(-c2nnc(-c3cccs3)o2)cc(OC)c1OC`, 21.8%.
For the molecule `CN1CCN(NC(=O)c2cccc(Br)c2)CC1`, the “hERG current change (%, negative = inhibition) at 10uM” value is reported as -6.19%.
In the case of `COc1ccc(N2CCN(S(=O)(=O)c3cnc[nH]3)CC2)cc1` it was 4.1%; in that of `O=C(O)c1cnn(-c2nc(-c3ccc(Br)cc3)cs2)c1C(F)(F)F`, 18.9%.
To `O=C(NCC1CCCO1)C(c1ccc(N2CCOCC2)cc1)N(C(=O)Cn1nnc2ccccc21)c1ccccc1F` (stereo not drawn) belongs 5.36%.
For `O=C(O)c1cccc(N=C2NC(=O)C(CO)(CO)S2)c1`, the “hERG current change (%, negative = inhibition) at 10uM” value amounted to 14.4%.
On to `NC(=O)[C@@H]1CCCNc2c(I)cc([N+](=O)[O-])cc2C(=O)N[C@@H](CCC(=O)O)C(=O)N[C@@H](CO)C(=O)N1`, for which the “hERG current change (%, negative = inhibition) at 10uM” value stood at 6.26%.
To `CNc1nc(Nc2ccc([N+](=O)[O-])cc2)nc(OCC(F)(F)F)n1` belongs 4.67%; to `Cc1ccc2c(c1)C1(OCCO1)C(=O)N2`, 10.4%; to `CCCN1CCN(CCNC(=O)Nc2ccccc2Cl)CC1`, -6.78%.
In the case of `CCOC(=O)[C@@H]1[C@H]2COc3ccccc3[C@H]2N2C(=O)N(c3ccc(OC)cc3)C(=O)[C@]12C` it was -2.02%; in that of `COc1cccc(-c2nc(CS(=O)CC(=O)NCc3ccc4c(c3)OCO4)c(C)o2)c1` (stereo not drawn), -18%; in that of `COCCN1C(=O)c2ccccc2C(C(=O)Nc2ccc3c(c2)OCCO3)C1c1ccc(F)cc1` (stereo not drawn), 17.1%.
In the case of `Cc1ccccc1Nc1c(N)c(=O)oc2ccccc12` it was -5.01%; in that of `COc1cccc(/C(O)=C2/C(=O)C(=O)N(c3ccccn3)C2c2ccc(OC)c(OC)c2)c1` (stereo not drawn), 14.7%; in that of `O=C(CSc1nnc(Cc2cccs2)n1Cc1ccco1)Nc1cccc(Cl)c1`, -13.9%.
On to `Cc1ccc(CN2CCSc3ccc(C(=O)NCCCN4CCN(C)CC4)cc32)cc1`, for which the “hERG current change (%, negative = inhibition) at 10uM” value was -38.7%.
As to `N#Cc1c(NC(=O)c2ccccc2)sc2c1CCC2`, the “hERG current change (%, negative = inhibition) at 10uM” value is recorded as -2.03%.
To `CC1CCCC(NC(=O)c2ccc(COc3ccccc3)o2)C1C` (stereo not drawn) belongs 0.0111%; to `CCOC(=O)CN(C)Cc1cn(C)nc1-c1ccc(Oc2ccccc2)cc1`, -11.5%; to `NNC(=O)c1sc(-c2ccccc2)cc1N`, 9.7%.
To `CC(C)C(NC(=O)c1c(F)cccc1F)C(=O)N1CCN(c2ccccc2F)CC1` (stereo not drawn) belongs -1.76%.
